# Measured values as given in the supplement of paper PMC11417369.
# This is one part of the list.
# System: PfHDP1 homeodomain (GST-tagged)
# Assay: gcPBM binding intensity (ln(normalized median fluorescence intensity)); higher = stronger DNA binding
# Summary of the method: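 Probes on an Agilent 4 × 180k array were primer-extended, double-stranded and 36 bp long, taken from intergenic genomic regions, with negative controls added. GST-tagged P. falciparum DNA-binding domains from E. coli, about 25 μg on average, were applied to the array for 1 h in 1× PBS containing 1% milk, 0.2 mg/ml BSA, 0.5% salmon testes DNA and 0.03% Triton X-100. Binding intensity, obtained after Alexa488 anti-GST antibody detection and a 488 nm scan, is the highest Masliner-normalised natural-log median intensity across replicate spots of either probe orientation.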
row,Sequence,gcPBM binding intensity (ln)
1,TTTTTTGTTAAAAGAGTGCAAATTTTTAAAGATTTG [GTGCAC_site9502],8.34
2,TTTTTTGTACCAAAAAAAAAAAAAAGAAAAAAAAAC [CACACA_negctrl_site1416],6.21
3,TATTTTATTATTATTATTTCTTTATAGTGTATTCTA [CACACA_negctrl_site517],6.34
4,TATTTTATTATTATTATTAGTATGATTTCTTTATAG [CACACA_negctrl_site550],6.4
5,GGATAGGCATAACATAGTACGTACAAATATATATAT [XGTACX_site454],8.37
6,AATATATAGCTAAAAACACACAAATATATACACATA [CACACA_site9203],6.97
7,TTTTCGTAACTGATTCAACACACAAAAGGGGGAAAA [CACACA_site8517],6.71
8,TTATAAAAATTTAGTTGTACATGTCAAATTATCAAT [XGTACX_site7229],6.41
9,TAAGACAATAAATGCTGTACAATTGAATATCTTGGA [XGTACX_site636],6.27
10,AAAAGCACAAAAAATACACACACAAAAAATAAAAAA [CACACA_site8545],6.5
11,TATATCCCTTAGAATACACACCCATATGAGTGTGAA [CACACA_site8965],6.36
12,TAATGATAAATACATACACACAAAAAATGATATATA [CACACA_site7258],6.48
13,ACAAAAATTAAATAAAGTACATTTTTAAAATACGTA [XGTACX_site3880],6.35
14,AATGTAAAATCTTCATATACATTTAAGTCTGTATTT [TGCATGCA_negctrl_site183],5.83
15,ATAAAAAAAAAAACAGTAAAATTATAATTATAATTA [TGCATGCA_negctrl_site356],6.45
16,TTAACAAATAAACACACACACACACCCAAAAAAAAA [CACACA_site8068],6.67
17,ATATGAAAAAGAACTTGTACTAAAGTGGCATATTAT [XGTACX_site8520],6.57
18,CATATATATTTTATTTGTACGTATAAAAAAACAAAA [XGTACX_site4253],6.62
19,TAAATACTTGTATATAGTACAAGTTGTTTTTTTTAA [XGTACX_site5643],5.95
20,ATTATTTGAAACTATTGTACATTTAAAAACATTTTT [XGTACX_site4896],6.5
21,TGGAACCTTTAAAATACACACCCAAATCCTTTGAAA [CACACA_site7671],6.43
22,AAAAAAAAAAAAAACACACACATATAAATATAAATA [CACACA_site6972],6.58

row,Sequence,gcPBM binding intensity (ln)
1,TCATATATTCAAAAATTTAAAGTTAATAAAACTTGA [CACACA_negctrl_site1546],5.91
2,ATTGGACTATAAATAGGTACACATATATATATATAT [XGTACX_site7562],9.33
3,TTTGTAATAAATAAGAGTACAAGTATGGTTCCACTA [XGTACX_site2579],6.08
4,TGTATACATTCTGAATGTACGGAACACCTCATAACT [XGTACX_site7240],6.4
5,AATATATGGTTTCATGATATTAAATTCAAAATAATG [CACACA_negctrl_site318],6.03
6,TATAAAATGATGATATGTACTTATGTAGTTTTTTTA [XGTACX_site8711],5.96
7,TTTTCATTTGTGACAGTGCAAAATGTTATATTAAAA [GTGCAC_site9647],9.22
8,AATAATACATCCTTAGTGCAGAAATAAAAATTAAGC [GTGCAC_site9955],7.44
9,TATTTATTGTGACACTTATATTATTTTATGATTAAA [CACACA_negctrl_site525],6.53
10,TTTCAAATTTAATACACACACAAGTATATATTTATC [CACACA_site3947],6.57
11,TTGTGTTATCACACGAAGGGGATAAGACATAAATGT [TGCATGCA_negctrl_site368],6.43
12,TATATATAAAAACACACACACACACCCTATAATTAT [CACACA_site4063],7.18
13,TTATATTATGTTCAATCAAAAATTATTTTTAAAAAA [XGTACX_negctrl_site595],6.2
14,TTTTTGTTTGAACACTGTACGTATAAATATAAAAGT [XGTACX_site6476],6.56
15,GAAAAAAGAAAAAAAAGTACACACATGTATATTAAT [XGTACX_site5265],6.48
16,AATGTGTTTTTTTTTTTTTTTTTTTTCAATCTCTAT [CACACA_negctrl_site794],6.07
17,AATGTACACCCACCCACACACAAACAAATATATATA [CACACA_site5521],7.73
18,AAAAATAATTATTCGTGTACAAAAAAAAAAATATAA [XGTACX_site439],6.59
19,GGAATATATATACATACACACATATATATATATATA [CACACA_site1666],9.32
20,ATGCAAATGTGCATCACACACACTAATGGGTATGTA [CACACA_site2893],9.01
21,AAAGTAATAATGATTTGTACATATATATATATATAT [XGTACX_site8821],9.4
